Source: PubChem BioAssay (NCI)
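All cell lines were grown in 96-well plates and treated with compound for 48 hours. GI50 = concentration required for 50% inhibition of growth. The concentration for full growth arrest is given as TGI.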

System: NCI-H322M lung
Experiment: inhibition of tumour cell growth, NCI panel, 48 h

In the case of COc1ccc([C@@H]2[C@@H](O)C(=O)N2c2cc(OC)c(OC)c(OC)c2)cc1Cl, the GI50 is reported as 0.0232 µM and the TGI is reported as > 100 µM.
